# Data reported in article PMC6602471.
# Some of the results follow. At the low end of the ranking the order means little.
# Target: T1, ETS1 (UniProt P14921)
# T1 sequence: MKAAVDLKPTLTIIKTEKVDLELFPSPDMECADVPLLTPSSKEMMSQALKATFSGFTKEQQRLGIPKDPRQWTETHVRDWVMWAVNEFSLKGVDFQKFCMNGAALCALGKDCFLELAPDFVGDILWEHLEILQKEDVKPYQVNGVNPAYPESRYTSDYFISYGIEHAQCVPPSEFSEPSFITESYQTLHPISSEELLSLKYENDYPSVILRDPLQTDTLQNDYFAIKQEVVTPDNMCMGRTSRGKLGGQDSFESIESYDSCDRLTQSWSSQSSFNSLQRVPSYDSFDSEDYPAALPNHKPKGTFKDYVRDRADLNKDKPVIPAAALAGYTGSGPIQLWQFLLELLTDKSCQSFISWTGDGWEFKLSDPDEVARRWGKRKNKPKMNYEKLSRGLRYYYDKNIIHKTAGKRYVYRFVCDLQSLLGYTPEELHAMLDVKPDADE
# Experiment: custom PBM
# Details: custom protein-binding microarray; buffer, salt, pH and temperature not stated; high values mean tight binding; double strand, one strand shown
row,Sequence,binding signal (log fluorescence intensity)
1,GTGGGACTTGACCCAACTCTGCCACGTGGGTCGTTTGTCTTGATTCGCTTGACGCTGCTG,8.38
2,TACTGACTTAAATATGCGAATGCACATGAATAGACCGTCTTGATTCGCTTGACGCTGCTG,8.34
3,GCTGCTGCGGTGCATACCCCACCGGATGTGACCACGGTCTTGATTCGCTTGACGCTGCTG,10.2
4,CACAATTTTTACTGTAATGTAGCACGCGTAACTCCTGTCTTGATTCGCTTGACGCTGCTG,8.34
5,GTGTATAGGATCCCATCCAACACACGTCTTAAAATGGTCTTGATTCGCTTGACGCTGCTG,8.3
6,GTGTATAGGATTCCATCCAACACACGTGTTAAAATGGTCTTGATTCGCTTGACGCTGCTG,8.03
7,CAGCATAGGACTTCTTCCCTGGAGCAATTGATAACCGTCTTGATTCGCTTGACGCTGCTG,8.18
8,CTGGGACTTGACCCAACTCTGCCACTTGGGTCGTTTGTCTTGATTCGCTTGACGCTGCTG,8.2
9,TACTGACTTATATATGCGAATGCACATGAAGAGACCGTCTTGATTCGCTTGACGCTGCTG,8.12
10,GGAAAAAGCCCCAGGGTAACACCGGAAGTGGGCTTAGTCTTGATTCGCTTGACGCTGCTG,12.1
11,GATTAATTTTTGCCCTTATTCGCACGTGCCATAACAGTCTTGATTCGCTTGACGCTGCTG,8.16
12,TGTCGGGTAAGGGAATGTAGCTCACGTGAATGAAAAGTCTTGATTCGCTTGACGCTGCTG,8.16
13,TCCGGCTACCAGCCCCACCCACTTCAGGCCTTGTAGGTCTTGATTCGCTTGACGCTGCTG,8.28
14,CAGCATCGGACTTCTTCCCTGAAGCAATTGATAACCGTCTTGATTCGCTTGACGCTGCTG,8.4
15,CACAATTTTTACAGTAACGTAGCACGCGTAACTCCTGTCTTGATTCGCTTGACGCTGCTG,8.28
16,GATTAATTTCTCCCCTTATTCGCACGTGCCATAACAGTCTTGATTCGCTTGACGCTGCTG,8.18
17,GTGTATAGGATCGCATCCAACACACGTGTTAAAATGGTCTTGATTCGCTTGACGCTGCTG,8.4
18,TACTGACTTACATATGCGAATGCACATGAATAGACCGTCTTGATTCGCTTGACGCTGCTG,8.22
19,GTGTATAGGATCCCATCCAACACACGTGATAAAATGGTCTTGATTCGCTTGACGCTGCTG,8.19
20,GGAAAAAGGCCCAGGGTAACATCGGAAGTGGGCTTAGTCTTGATTCGCTTGACGCTGCTG,8.54
21,GTGTATTGGATCCCATCCAACACACGTGTTAAAATGGTCTTGATTCGCTTGACGCTGCTG,8.08

row,Sequence,binding signal (log fluorescence intensity)
1,CTGGGACTTGACCCAACTCTGCGACGTGGGTCGTTTGTCTTGATTCGCTTGACGCTGCTG,8.16
2,TAACGGGAAGACGGTTGTGGTAGTTCCGGGTATTAAGTCTTGATTCGCTTGACGCTGCTG,8.88
3,GGAAAGAGGCCCAGGGTAACACCGGAAGTGGGCTTAGTCTTGATTCGCTTGACGCTGCTG,11.9
4,CACAATTCTTACAGTAATGTAGCACGCGTAACTCCTGTCTTGATTCGCTTGACGCTGCTG,8.04
5,CTGGGACTTGACCCAACGCTGCCACGTGGGTCGTTTGTCTTGATTCGCTTGACGCTGCTG,8.22
6,GTGTATAGGATCCCATCCAACACAAGTGTTAAAATGGTCTTGATTCGCTTGACGCTGCTG,8.17
7,CTGGGACTTGACCCAACTCTGCCACGTGGGTCTTTTGTCTTGATTCGCTTGACGCTGCTG,8.08
8,TCCGGCTACCAGCTCCACCCAGTTCAGGCCTTGTAGGTCTTGATTCGCTTGACGCTGCTG,8.27
9,GTGTATAGGATCCCATCCAACACACGTGTTAGAATGGTCTTGATTCGCTTGACGCTGCTG,8.26
10,CTGGGACTTGACCCAACTCTGCTACGTGGGTCGTTTGTCTTGATTCGCTTGACGCTGCTG,8.29
11,GTGTATAGGATCCCATCCAACACTCGTGTTAAAATGGTCTTGATTCGCTTGACGCTGCTG,8.3
12,GATTAATTTCTGCCCTTATTCGCACGTGCCATATCAGTCTTGATTCGCTTGACGCTGCTG,8.26
13,TAAAGGGAAGACGGTTGTGGTAATTCCGGGTATTAAGTCTTGATTCGCTTGACGCTGCTG,8.25
14,GCTGCTGCGGTGCGTACCCCACCGGATGTGACCCCGGTCTTGATTCGCTTGACGCTGCTG,9.93
15,TACTGACTTATATATACGAATGCACATGAATAGACCGTCTTGATTCGCTTGACGCTGCTG,8.16
16,CTGGGACTTGACCCAACTCTGCCAGGTGGGTCGTTTGTCTTGATTCGCTTGACGCTGCTG,8.33
17,CCGCATAGGACTTCTTCCCTGAAGCAATTGATAACCGTCTTGATTCGCTTGACGCTGCTG,8.27
18,GGAAAAAGGCCCAGGGTAACACCGGAAGTGCGCTTAGTCTTGATTCGCTTGACGCTGCTG,11.7
19,TAAAGGGAAGACGGTTGTGGTAGTTCGGGGTATTAAGTCTTGATTCGCTTGACGCTGCTG,8.21
20,GCTGCTGCGGTGCATACCCCACAGGATGTGACCCCGGTCTTGATTCGCTTGACGCTGCTG,8.47
21,GGAAAACGGCCCAGGGTAACACCGGAAGTGGGCTTAGTCTTGATTCGCTTGACGCTGCTG,12

row,Sequence,binding signal (log fluorescence intensity)
1,TACTGACTTATATATGCGAATGCACATGAATATACCGTCTTGATTCGCTTGACGCTGCTG,8.19
2,GGAAAAAGGCCCAGGCTAACACCGGAAGTGGGCTTAGTCTTGATTCGCTTGACGCTGCTG,12.1
3,GATCAATTTCTGCCCTTATTCGCACGTGCCATAACAGTCTTGATTCGCTTGACGCTGCTG,8.18
4,CGGAAGTGTCGTAAACGTCGGATATCCGGTTCTTTTGTCTTGATTCGCTTGACGCTGCTG,11.9
5,TGTCGGGTCAGGGAATGTAGATCACGTGAATGAAAAGTCTTGATTCGCTTGACGCTGCTG,8.29
6,TGTCGGGTAAGGGAATTTAGATCACGTGAATGAAAAGTCTTGATTCGCTTGACGCTGCTG,8.18
7,CAGAAGTGTCGTAAACGTCGGATATCCGGTTCTTCTGTCTTGATTCGCTTGACGCTGCTG,12.1
8,CAGCATAGGACTTCTTCCCTGAAGCGATTGATAACCGTCTTGATTCGCTTGACGCTGCTG,8.3
9,CTTGGACTTGACCCAACTCTGCCACGTGGGTCGTTTGTCTTGATTCGCTTGACGCTGCTG,8.16
10,CGGAAGTGTCGTAAACGTCTGATATCCGGTTCTTCTGTCTTGATTCGCTTGACGCTGCTG,11.8
11,TACTGACTTATATATGCGCATGCACATGAATAGACCGTCTTGATTCGCTTGACGCTGCTG,8.04
12,CAGCATAGGACTTCTTCCCTTAAGCAATTGATAACCGTCTTGATTCGCTTGACGCTGCTG,8.13
13,CACAATTTTTACAGTAATGTAGCACGCATAACTCCTGTCTTGATTCGCTTGACGCTGCTG,8.1
14,CAGCATAGGACTTCTGCCCTGAAGCAATTGATAACCGTCTTGATTCGCTTGACGCTGCTG,8.22
15,GCTGCTGCGGTGCATACCCCACCAGATGTGACCCCGGTCTTGATTCGCTTGACGCTGCTG,8.36
16,TGTCGGGGAAGGGAATGTAGATCACGTGAATGAAAAGTCTTGATTCGCTTGACGCTGCTG,8.23
17,TACTGAATTATATATGCGAATGCACATGAATAGACCGTCTTGATTCGCTTGACGCTGCTG,8.08
18,CTGGGACTTGACCCAACTCTGCCACGTGGTTCGTTTGTCTTGATTCGCTTGACGCTGCTG,8.29
19,CTGGGACTTGACCCAACTTTGCCACGTGGGTCGTTTGTCTTGATTCGCTTGACGCTGCTG,8.36
20,TAAAGGGAAGACGGTTTTGGTAGTTCCGGGTATTAAGTCTTGATTCGCTTGACGCTGCTG,8.52
21,CAGCATAGGACTTCTTCCCTGAAGCAATTGATAATCGTCTTGATTCGCTTGACGCTGCTG,8.23

row,Sequence,binding signal (log fluorescence intensity)
1,CAGCATAGGACTTCTTCCCTGAAGCAATTGATTACCGTCTTGATTCGCTTGACGCTGCTG,8.17
2,CTGGGCCTTGACCCAACTCTGCCACGTGGGTCGTTTGTCTTGATTCGCTTGACGCTGCTG,8.25
3,GATTATTTTCTGCCCTTATTCGCACGTGCCATAACAGTCTTGATTCGCTTGACGCTGCTG,8.15
4,CACTATTTTTACAGTAATGTAGCACGCGTAACTCCTGTCTTGATTCGCTTGACGCTGCTG,8.06
5,CTGGGACTTGACCCAAATCTGCCACGTGGGTCGTTTGTCTTGATTCGCTTGACGCTGCTG,8.22
6,TACTGACTTATATATGCGAATGCCCATGAATAGACCGTCTTGATTCGCTTGACGCTGCTG,8.28
7,GCTGCTGCGGTGCATACCCCACCTGATGTGACCCCGGTCTTGATTCGCTTGACGCTGCTG,8.18
8,TAAAGGGAAGACTGTTGTGGTAGTTCCGGGTATTAAGTCTTGATTCGCTTGACGCTGCTG,8.36
9,CTGGGACTGGACCCAACTCTGCCACGTGGGTCGTTTGTCTTGATTCGCTTGACGCTGCTG,8.21
10,GATTAATTTCTGCCCTTATTCGCACGTGCCATAAAAGTCTTGATTCGCTTGACGCTGCTG,8.46
11,CTGGGACTTGACCCAACTCCGCCACGTGGGTCGTTTGTCTTGATTCGCTTGACGCTGCTG,8.19
12,GCTGCTGCGGTGCATACCCCACCGCATGTGACCCCGGTCTTGATTCGCTTGACGCTGCTG,8.19
13,TACTGACTTATATTTGCGAATGCACATGAATAGACCGTCTTGATTCGCTTGACGCTGCTG,8.23
14,GCTGCTGCGGTGCATACGCCACCGGATGTGACCCCGGTCTTGATTCGCTTGACGCTGCTG,10.4
15,GTGTATAGGATCCCATGCAACACACGTGTTAAAATGGTCTTGATTCGCTTGACGCTGCTG,8.2
16,GATTAATTTCTGCCCTTATTTGCACGTGCCATAACAGTCTTGATTCGCTTGACGCTGCTG,8.21
17,GTGTATAGGATCCCCTCCAACACACGTGTTAAAATGGTCTTGATTCGCTTGACGCTGCTG,8.2
18,TGTCGGGTAAGGGAATGTAGATCATGTGAATGAAAAGTCTTGATTCGCTTGACGCTGCTG,8.37
